In the supplement of paper PMC4166925:
± gives the standard deviation of the averaged measurements. The full ranking holds about 33,000 sequences; the median of “E-score (dimensionless, -0.5 to 0.5)” is about -0.049, and the highest 2% start at about 0.37. The list shows a part of the results.

Each sequence was assayed on T1, PmTbr T-box DNA-binding domain (GST fusion) (assay: PBM E-score of 8-mer (E-score (dimensionless, -0.5 to 0.5)); Tbr is Tbrain of the sea star Patiria miniata (Pm) or the sea urchin Strongylocentrotus purpuratus (Sp); higher = stronger binding preference; most listed sequences are background and not binding sites). Conditions: the construct has about 5 more residues each side.
T1 sequence: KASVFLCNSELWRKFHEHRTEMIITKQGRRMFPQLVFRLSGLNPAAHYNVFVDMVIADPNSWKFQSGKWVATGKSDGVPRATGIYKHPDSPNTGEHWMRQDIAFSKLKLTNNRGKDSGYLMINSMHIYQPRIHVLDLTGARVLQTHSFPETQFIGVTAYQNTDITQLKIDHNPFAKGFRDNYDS
Method: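 Universal protein-binding microarray (Agilent AMADID 016060, 60-bp probes with a 35-bp variable region) incubated with 200 nM GST-fused Patiria miniata Tbr T-box DNA-binding domain (residues 272-466) in PBS pH 7.5. Scored for every ungapped 8-mer (given with its reverse complement) by the Universal PBM Analysis Suite as E-score (modified Wilcoxon-Mann-Whitney enrichment, range -0.5 to 0.5; >0.45 counts as bound) and Z-score of median probe intensity. Two replicate arrays (datasets 1 and 2).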
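Also: 200 nM protein in PBS on universal arrays averaged over duplicate arrays.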

Row | Sequence | PBM E-score of 8-mer
1 | ATTCGAAA | 0.0548 ± 0.085
2 | GGGGCCAC | -0.105 ± 0.045
3 | CAACAGCG | 0.09 ± 0.052
4 | ACGCTCGG | -0.0371 ± 0.064
5 | AACGCCCT | 0.286 ± 0.0082
6 | CGGAGGAG | 0.0613 ± 0.045
7 | GAGGGACC | -0.204 ± 0.011
8 | CTTAAGTC | -0.115 ± 0.032
9 | CAAATCGC | 0.233 ± 0.027
10 | AAAACGAT | -0.116 ± 0.0025
11 | CAAGGAGA | -0.147 ± 0.071
12 | ATTATACA | -0.23 ± 0.07
13 | CCGAACCG | -0.243 ± 0.11
14 | AGCGACAT | 0.184 ± 0.018
15 | GGCGGTGA | 0.0517 ± 0.094
16 | ACCTTTAC | 0.161 ± 0.0072
17 | ACGGCTAA | -0.195 ± 0.092
18 | GCAGTCGA | -0.103 ± 0.045
19 | CGCGCCCA | 0.174 ± 0.03
20 | TAACTTAA | -0.107 ± 0.048
21 | TATCAACA | 0.0781 ± 0.09
22 | AACAGTGC | 0.0577 ± 0.058

Row | Sequence | PBM E-score of 8-mer
23 | CTTAATAA | -0.304 ± 0.1
24 | GAGACAAA | 0.0638 ± 0.036
25 | CACGAGTG | 0.249 ± 0.005
26 | GAAATAAC | 0.214 ± 0.003
27 | ACAGAAAG | -0.169 ± 0.0034
28 | AGAGTGTC | 0.385 ± 0.0076
29 | CTCAAAGA | -0.255 ± 0.014
30 | ATATGCAT | -0.105 ± 0.014
31 | CAGGTCCC | -0.0463 ± 0.078
32 | AGCACATG | 0.133 ± 0.0018
33 | GTATAGTA | -0.165 ± 0.0065
34 | ATGAAGTA | -0.255 ± 0.027
35 | AGTTCAGC | -0.0543 ± 0.047
36 | AATCTCGT | -0.0385 ± 0.012
37 | CCTCACAA | 0.155 ± 0.016
38 | TAAAAATA | -0.00747 ± 0.055
39 | GAATATAC | -0.167 ± 0.026
40 | CGATTGGA | -0.235 ± 0.032
41 | GTCGTCAA | 0.241 ± 0.028
42 | AACAACAG | -0.024 ± 0.086
43 | CAAGGACA | -0.161 ± 0.012
44 | GGGCACTA | -0.147 ± 0.02

Row | Sequence | PBM E-score of 8-mer
45 | ACTATAAA | -0.202 ± 0.022
46 | ATATCTTG | -0.114 ± 0.022
47 | AATCGACG | 0.135 ± 0.0088
48 | CATAGTCG | 0.0252 ± 0.079
49 | CTGGTAGC | 0.0265 ± 0.042
50 | ACCGGACG | -0.00851 ± 0.03
51 | CGTATTGA | -0.122 ± 0.0047
52 | AAGAATGC | -0.155 ± 0.071
53 | ACCCTCCG | -0.0724 ± 0.014
54 | AGCGCTTG | -0.02 ± 0.022
55 | GTGGTAAC | 0.161 ± 0.021
56 | ATATGGAA | -0.229 ± 0.0052
57 | CGTCAAAA | 0.316 ± 0.0064
58 | ACGACTAC | -0.0417 ± 0.085
59 | GCTGTGAC | 0.208 ± 0.037
60 | ATCCTCCA | -0.0688 ± 0.099
61 | TCTGTTCA | 0.0089 ± 0.041
62 | CTATAGGA | -0.2 ± 0.065
63 | CAACAGTG | 0.159 ± 0.033
64 | ACACCCCA | 0.382 ± 0.015
65 | CTACTACA | -0.157 ± 0.027
66 | ACTATGAG | -0.17 ± 0.049

Row | Sequence | PBM E-score of 8-mer
67 | CGATTGAG | -0.202 ± 0.038
68 | GAATTATA | -0.0658 ± 0.064
69 | AATGTCGA | 0.0192 ± 0.036
70 | GGAAGAAC | -0.227 ± 0.041
71 | AGGAGTCA | -0.0195 ± 0.023
72 | CGACGACA | 0.147 ± 0.018
73 | ACCACGGC | 0.0393 ± 0.052
74 | CGTTCGAG | -0.136 ± 0.0015
75 | CAATTGTC | 0.226 ± 0.044
76 | ACACTACG | 0.283 ± 0.0065
77 | GACTTATA | 0.0852 ± 0.044
78 | GCATTGTA | 0.00576 ± 0.00042
79 | ATCTCGGA | -0.299 ± 0.016
80 | AGTGTCGA | 0.4188 ± 0.0041
81 | TTCATAAA | -0.114 ± 0.074
82 | GGCGACGA | 0.195 ± 0.0081
83 | CGGGCTTC | -0.245 ± 0.033
84 | ACAGGAAC | -0.0466 ± 0.036
85 | AAATGCGA | -0.0108 ± 0.0092
86 | ACGTGGCA | 0.232 ± 0.032
